Here are results for 61 compounds from PubChem BioAssay AID1963576 (National Center for Advancing Translational Sciences (NCATS), 2024).

Screen size: about 46,000 compounds; about 60 (0.1%) were called active. Roughly 3% stayed inconclusive and do not appear here. Calls come from the whole dose curve; as a rule, active = well fitted inhibition curve with a large enough effect; inconclusive = small, poorly fitted or top-dose-only effect; inactive = no such curve, though single readings can be large or run the other way. Some of the results follow.

The assay is described as follows: Primary qHTS assay for Inhibitors of ovarian cancer metastasis using an organotypic tumor microenvironment (TME) model.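 For activity change, negative = inhibition: plate controls were DMSO wells for no effect and tomatine positive control wells for full effect.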 Note: nearly all actives have a fitted effect of over 65% in size. The note with it: SKOV3ip1-GFP adhesion/invasion on 3D omental model, fluorescence; series mostly up to 45.8 µM; activity change, negative = inhibition: at the top concentration. The procedure, abridged:
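Adhesion/invasion was scored as fixed GFP-labeled SKOV3ip1 cell counts (488/509 nm), normalized to DMSO and tomatine controls. Cancer cells in serum-free medium, with four compound doses (0.36-46 umol/L), sat 2 hr at RT then 16 hr at 37 C on a 48 hr fibroblast/mesothelial/ECM culture.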
A general note: Quantitative high-throughput screening tests each substance at several concentrations.
With `Cc1ccc(S(=O)(=O)C(CNC(=O)C(=O)NCc2ccc(Cl)cc2)c2ccco2)cc1` (stereo unspecified), the “activity change, negative = inhibition” value was inactive: -1.24%.
As for `CCOc1ccc(-n2c(=O)c3c(C)c(C(=O)N(C)C)sc3n(Cc3cc(C)ccc3C)c2=O)cc1`, the result was inactive.
For the compound `CCOC(=O)c1ccc(-c2ccc(/C=C(\C#N)C(=O)Nc3ccc(C)cc3)o2)cc1`, the “activity change, negative = inhibition” value was inactive: 2.3%.
Take `COc1cc(CN(C(=O)c2ccc(Cl)cc2)C2CCS(=O)(=O)C2)cc(OC)c1OC` (stereo unspecified): the “activity change, negative = inhibition” value was inactive: -4.98%.
Still for that read-out and setting: the value for `CCn1cc(S(=O)(=O)c2ccc(Cl)cc2)c(=O)c2cc(F)c(N3CCOCC3)cc21` was inactive: 17.8%.
As for `Cc1ccc(CNC(=O)CN2C(=O)CCc3cc(S(=O)(=O)N4CCCCC4)ccc32)cc1`, the compound was classed as inactive.
On to `Cc1ccc2onc(CNC(=O)N3CCN(c4cccc(C(F)(F)F)c4)CC3)c2c1`, for which the “activity change, negative = inhibition” value is inactive: 0.551%.
On to `Cc1ccc(NC(c2nnc(-c3ccccc3)o2)c2ccccc2F)c(Cl)c1` (stereo unspecified), for which the outcome was inactive.
In the case of `COCC(=O)Nc1c(C(=O)Nc2ccc(C)cc2)oc2ccccc12`, the “activity change, negative = inhibition” value is inactive: -6.85%.
For `COC(=O)c1ccc2nc(C)cc(Nc3cccc(Cl)c3C)c2c1`, the result was inactive.
For the compound `CCOc1ccc(S(=O)(=O)N(CC(=O)Nc2ccc3c(c2)OCO3)c2ccc(C)cc2)cc1`, the “activity change, negative = inhibition” value is inactive: -4.51%.
Turning to `Cc1ccc2oc(-c3ccc(C)c(NC(=O)c4ccc(-c5ccccc5[N+](=O)[O-])o4)c3)nc2c1`, the “activity change, negative = inhibition” value was inactive: -23.1%.
On the same count and under the same terms, the value for `COC(=O)c1ccc2c(=O)n(CCCCCC(=O)N3CCN(c4ccc(Cl)cc4)CC3)c(=O)[nH]c2c1` was inactive: 2.86%; that for `Cc1ccc(CCNC(=O)CCn2nc(-c3ccc(C)cc3)ccc2=O)cc1` was inactive: 18.1%.
As to `CCN(CC)CCSc1nnc2c3cc(F)ccc3n(CC)c2n1`, the compound was called inactive.
On to `COc1cccc(C(=O)n2nc(-c3cccnc3)nc2NCc2ccc(F)cc2)c1`, for which the “activity change, negative = inhibition” value was inactive: -3.27%.
Regarding `O=C(NCCc1ccccc1)c1ccc(CS(=O)(=O)c2ccc(Cl)cc2)o1`, the compound was classed as inactive.
Take `Cc1c(Cl)cccc1NC(=O)Nc1ccc2snnc2c1`: the “activity change, negative = inhibition” value was inactive: -29%.
As for `COC(=O)c1ccc(NC(=O)CN(Cc2ccccc2)S(=O)(=O)c2ccc(Cl)cc2)cc1`, the “activity change, negative = inhibition” value is inactive: -6.14%.
Still for that read-out and setting: the value for `CCCSc1nnc2c(n1)OC(c1cccs1)Nc1ccc(Br)cc1-2` (stereo unspecified) was inactive: 6.82%.
As to `COc1ccccc1CNC(=O)Cn1c(=O)nc(-c2ccccc2)c2ccccc21`, the outcome was inactive.
With `CC(=O)Nc1ccc(NC(=O)c2cc(-c3ccc4c(c3)OCCO4)on2)cc1`, the “activity change, negative = inhibition” value is inactive: 1.91%.
Still for that read-out and setting: the value for `CCC(=O)N1c2ccc(S(=O)(=O)CCC(=O)NCc3cccc(OC)c3)cc2CC1C` (stereo unspecified) was inactive: 8.42%; that for `Cc1cccc(S(=O)(=O)c2cn(C)c3cc(N4CCC(C)CC4)c(F)cc3c2=O)c1` was inactive: 30.5%; that for `CCc1ccc(N(CC)C(=O)Cn2cnc3sc(C)c(S(=O)(=O)N4CCN(c5ncccn5)CC4)c3c2=O)cc1` was inactive: 6.36%.
For `CCCOc1ccccc1C1C(C(=O)Nc2ccccc2)=C(C)Nc2nnnn21` (stereo unspecified), the “activity change, negative = inhibition” value is inactive: -23.1%.
The same measure, in the same setting: the value for `N#C/C(=C\c1cc(Br)c(O)c(Br)c1)c1nc2ccccc2c(=O)[nH]1` was inactive: 1.04%.
With `CCc1ccc(OCC(=O)Nc2ccc3c(c2)c2ccccc2n3CC)c(Br)c1`, the “activity change, negative = inhibition” value is inactive: 5.31%.
For the compound `CCOc1ccc(NC(=O)C(C)n2c(=O)cc(C)c3c(C)nn(-c4ccccc4)c32)cc1` (stereo unspecified), the “activity change, negative = inhibition” value is inactive: -2.3%.
The same measure, in the same setting: the value for `Cc1ccc2onc(CC(=O)N3CCN(c4ccccc4)CC3)c2c1` was inactive: -27.9%; that for `COc1ccc(-c2nc(SCC(=O)NCCc3ccccc3)n[nH]2)cc1` was inactive: -1.23%; that for `COc1ccc(-c2noc(CSc3nnc(C)n3-c3ccc(C)c(C)c3)n2)c(OC)c1` was inactive: -1.99%.
Take `O=C(NCc1ccccc1Cl)c1nnc(Cc2ccc(Cl)cc2)o1`: the “activity change, negative = inhibition” value is inactive: -7.14%.
On to `Cc1cccc(CSc2ccc(-c3cccs3)nn2)c1`, for which the “activity change, negative = inhibition” value was inactive: 3.09%.
For the compound `CC1CCN(c2nc3ccc(C(=O)NCCc4ccc(S(N)(=O)=O)cc4)cc3s2)CC1`, the result was inactive.
On the same count and under the same terms, the value for `COc1ccc(CC(=O)NC2CC(=O)N(c3ccc(C)c(C)c3)C2)cc1OC` (stereo unspecified) was “inactive”.
`CCc1ccc(NC(=O)CSc2ncc(S(=O)(=O)c3cc(C)ccc3C)c(=O)[nH]2)cc1`: the “activity change, negative = inhibition” value was inactive: 3.06%.
Consider `O=C(CN1C(=O)CCc2cc(S(=O)(=O)N3CCCCC3)ccc21)NCc1ccc(Cl)cc1`, for which the result was inactive.
Take `O=NN(CCCl)C(=O)NC1CCCCC1`: the “activity change, negative = inhibition” value is inactive: 6.55%.
Turning to `COC(=O)c1c(NC(=O)c2ccc(S(=O)(=O)N(C)C3CCCCC3)cc2)sc2c1CCN(C)C2`, the “activity change, negative = inhibition” value is inactive: 12.1%.
For the compound `COC(=O)c1ccccc1NC(=O)C1CCCN(c2nnc(C)c3c(C)n(-c4ccccc4)nc23)C1` (stereo unspecified), the “activity change, negative = inhibition” value is inactive: -0.0812%.
Take `CCOC(=O)C(Cc1ccccc1)NC(=O)CCc1c(C)nc2c(c(C)nn2-c2ccc(C)c(C)c2)c1C` (stereo unspecified): the “activity change, negative = inhibition” value was inactive: 39.4%.
Still for that read-out and setting: the value for `Cc1ccc(CNC(=O)CN2C(=O)C3(SCC(=O)N3c3ccc(F)c(F)c3)c3ccccc32)cc1` (stereo unspecified) was inactive: -9.08%; that for `COc1ccc(-c2nc(Cn3c(SCc4ccccc4F)nc4cccnc43)c(C)o2)cc1` was inactive: 0.716%.
As to `Cc1cccc2sc(N(Cc3cccnc3)C(=O)C3COc4ccccc4O3)nc12` (stereo unspecified), the compound was classed as inactive.
Take `Cc1cccc(N2CCN(C(=O)CN3C(=O)COc4ccc(S(=O)(=O)N5CCCC5)cc43)CC2C)c1` (stereo unspecified): the “activity change, negative = inhibition” value is inactive: 21.1%.
Regarding `Cc1cc(NC(=O)C(C)(C)C)cc(-c2nc3ncccc3o2)c1O`, the “activity change, negative = inhibition” value is inactive: 3.29%.
For the compound `Cc1cc(NC(=O)c2cnc3c(-c4ccccc4)c(C)nn3c2C)ccc1Br`, the compound was classed as inactive.
On to `COc1ccc(OCC(=O)NCC(c2ccc(OC)cc2)N2CCOCC2)cc1` (stereo unspecified), for which the “activity change, negative = inhibition” value was inactive: -13.6%.
On the same count and under the same terms, the value for `Cc1ccc(C)c(N2CCN(C(=O)CS(=O)(=O)c3cccc4nsnc34)CC2)c1` was inactive: -3.11%; that for `COc1cccc(CNCCSc2nnnn2-c2ccccc2)c1OC` was inactive: 5.45%; that for `COc1ccc(-c2c(C)c3ccc(O)c(CN4CCCC4)c3oc2=O)cc1` was inactive: 0.134%.
For the compound `Cc1ccc(CNC(=O)c2ccccc2NC(=O)c2nsc3ccccc23)cc1`, the “activity change, negative = inhibition” value was inactive: -25.7%.
As for `Cc1ccc(/C=C/c2onc(C)c2S(=O)(=O)N2CCC(C(=O)NCc3ccc(OC(C)C)cc3)CC2)cc1`, the call was inactive.
With `CCc1c(CN2CCN(c3ccccc3F)CC2)csc1C`, the “activity change, negative = inhibition” value is inactive: 0.148%.
Still for that read-out and setting: the value for `CCn1c(SCC(=O)c2ccccc2)nnc1-c1cccc(Cl)c1` was inactive: -5.65%.
Consider `CC1=C(C(=O)OCc2ccc(C)cc2)C(c2cccc(F)c2F)CC(=O)N1` (stereo unspecified), for which the call was inactive.
In the case of `Cc1ccc2c(c1)c1c3n2CCN(C(=O)c2ccc(C(F)(F)F)cc2)C3CCC1` (stereo unspecified), the “activity change, negative = inhibition” value was inactive: -3.78%.
Turning to `COc1ccc(-c2cc(C(F)(F)F)n3nc(C(=O)Nc4cc(C)ccc4C)cc3n2)cc1`, the “activity change, negative = inhibition” value was inactive: 6.29%.
Turning to `Cc1nn(C(=O)c2cccc(F)c2)c(C)c1S(=O)(=O)N1CCOCC1`, the “activity change, negative = inhibition” value was inactive: 42%.
As to `O=C(C1CCN(c2ncnc3c2nc2n3CCCCC2)CC1)N1CCN(c2ccc(Cl)cc2)CC1`, the “activity change, negative = inhibition” value is inactive: -5.41%.
